From patent US7772236B2, “Substituted pyrazoles” (Ortho McNeil Pharmaceutical, Inc., priority 2000, dated 2010)

target: T1, Recombinant human cathepsin S (CatS) (Homo sapiens, UniProt P25774); assay: not given; settings: Table 3; 100 mM sodium acetate pH 5.0, 1 mM DTT, 100 mM NaCl; fluorescent peptide substrate

SMILES	pIC50
CNC(=O)Nc1cccc(Cl)c1N1CCN(CC(O)Cn2nc(-c3ccc(C(F)(F)F)cc3)c3c2CCN(S(C)(=O)=O)C3)CC1 (centres unmarked) [Example 285, 1-[3-Chloro-2-(4-{2-hydroxy-3-[5-methanesulfonyl-3-(4-trifluoromethyl-phenyl)-4,5,6,7-tetrahydro-pyrazolo[4,3-c]pyridin-1-yl]-propyl}-piperazin-1-yl)-phenyl]-3-methyl-urea]	7.40
COC(=O)c1cccc(NS(C)(=O)=O)c1N1CCN(CC(O)Cn2nc(-c3ccc(C(F)(F)F)cc3)c3c2CCN(S(C)(=O)=O)C3)CC1 (centres unmarked) [Example 302, 2-(4-{2-Hydroxy-3-[5-methanesulfonyl-3-(4-trifluoromethyl-phenyl)-4,5,6,7-tetrahydro-pyrazolo[4,3-c]pyridin-1-yl]-propyl}-piperazin-1-yl)-3-methanesulfonylamino-benzoic acid methyl ester]	7.15

target: T1, Recombinant human cathepsin S (CatS); assay: biochemical; settings: not given

SMILES	pIC50
CS(=O)(=O)N1CCc2c(c(-c3ccc(C(F)(F)F)cc3)nn2CCCN2CCN(c3c(Cl)cccc3NC(N)=O)CC2)C1 [Example 283, [3-Chloro-2-(4-{3-[5-methanesulfonyl-3-(4-trifluoromethyl-phenyl)-4,5,6,7-tetrahydro-pyrazolo[4,3-c]pyridin-1-yl]-propyl}-piperazin-1-yl)-phenyl]-urea]	7.10
Cc1cccc(C)c1N1CCN(CC(O)Cn2nc(-c3ccc(C(F)(F)F)cc3)c3c2CCN(S(C)(=O)=O)C3)CC1 (centres unmarked) [Example 287, 1-[4-(2,6-Dimethyl-phenyl)-piperazin-1-yl]-3-[5-methanesulfonyl-3-(4-trifluoromethyl-phenyl)-4,5,6,7-tetrahydro-pyrazolo[4,3-c]pyridin-1-yl]-propan-2-ol]	6.70
CS(=O)(=O)N1CCc2c(c(-c3ccc(C(F)(F)F)cc3)nn2CC(O)CN2CCN(c3c(C#N)cccc3C#N)CC2)C1 (centres unmarked) [Example 289, 2-(4-{2-Hydroxy-3-[5-methanesulfonyl-3-(4-trifluoromethyl-phenyl)-4,5,6,7-tetrahydro-pyrazolo[4,3-c]pyridin-1-yl]-propyl}-piperazin-1-yl)-isophthalonitrile]	6.82
COC(=O)c1cccc(Cl)c1N1CCN(CC(O)Cn2nc(-c3ccc(C(F)(F)F)cc3)c3c2CCN(S(C)(=O)=O)C3)CC1 (centres unmarked) [Example 293, 3-Chloro-2-(4-{2-hydroxy-3-[5-methanesulfonyl-3-(4-trifluoromethyl-phenyl)-4,5,6,7-tetrahydro-pyrazolo[4,3-c]pyridin-1-yl]-propyl}-piperazin-1-yl)-benzoic acid methyl ester]	6.85
CS(=O)(=O)N1CCc2c(c(-c3ccc(C(F)(F)F)cc3)nn2CC(O)CN2CCN(c3c(Cl)cccc3CN3CCOCC3)CC2)C1 (centres unmarked) [Example 296, 1-[4-(2-Chloro-6-morpholin-4-ylmethyl-phenyl)-piperazin-1-yl]-3-[5-methanesulfonyl-3-(4-trifluoromethyl-phenyl)-4,5,6,7-tetrahydro-pyrazolo[4,3-c]pyridin-1-yl]-propan-2-ol]	6.32
CC(=O)N1CCc2c(c(-c3ccc(C(F)(F)F)cc3)nn2CC(O)CN2CCN(c3c([N+](=O)[O-])cccc3[N+](=O)[O-])CC2)C1 (centres unmarked) [Example 306, 1-[1-{3-[4-(2,6-Dinitro-phenyl)-piperazin-1-yl]-2-hydroxy-propyl}-3-(4-trifluoromethyl-phenyl)-1,4,6,7-tetrahydro-pyrazolo[4,3-c]pyridin-5-yl]-ethanone]	6.47
CC(=O)N1CCc2c(c(-c3ccc(C(F)(F)F)cc3)nn2CCCN2CCN(c3c(Cl)cncc3Cl)CC2)C1 [Example 310, 1-[1-{3-[4-(3,5-Dichloro-pyridin-4-yl)-piperazin-1-yl]-propyl}-3-(4-trifluoromethyl-phenyl)-1,4,6,7-tetrahydro-pyrazolo[4,3-c]pyridin-5-yl]-ethanone]	6.40
CC(=O)N1CCc2c(c(-c3ccc(Br)cc3)nn2CC(CN2CCN(c3ccccc3C#N)CC2)N=[N+]=[N-])C1 (centres unmarked) [Example 311, 2-(4-{3-[5-Acetyl-3-(4-bromo-phenyl)-4,5,6,7-tetrahydro-pyrazolo[4,3-c]pyridin-1-yl]-2-azido-propyl}-piperazin-1-yl)-benzonitrile]	5.68
CC(=O)N1CCc2c(c(-c3ccc(C(F)(F)F)cc3)nn2CC(O)CN2CCN(c3nc4ccc([N+](=O)[O-])cc4s3)CC2)C1 (centres unmarked) [Example 312, 1-[1-{2-Hydroxy-3-[4-(6-nitro-benzothiazol-2-yl)-piperazin-1-yl]-propyl}-3-(4-trifluoromethyl-phenyl)-1,4,6,7-tetrahydro-pyrazolo[4,3-c]pyridin-5-yl]-ethanone]	6.11

pIC50: −log10 of the molar value.
